Laboratory results as given in PubChem BioAssay AID445 (National Center for Advancing Translational Sciences (NCATS), 2006).
Hit rate of the full screen: of about 110,000 compounds, about 40 (0.04%) were called active. This list was built around the results that the source calls inconclusive (neither active nor inactive); the mix of calls is not that of the screen. The call rests on the fitted dose curve; in most records, active means well fitted curve in the direction sought with a large enough effect in the signal ratio (not every such curve was filed as active); inconclusive means small, poorly fitted or top-dose-only effect, or a change in a side signal; inactive means flat fitted curve, though single readings scatter; the % refers to the signal ratio. Potencies of inconclusive entries are doubtful fits and often do not repeat.

Experiment: IkB Signaling;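 on IkBa stabilization activation: 0% = basal untreated cells and 100% = reference inhibitor full response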
Settings: ABC-DLBCL IkBa-CBG/CBR dual luciferase ratio (green luciferase fused to IkBa over red control in OCI-Ly3 lymphoma cells), 4 h; IkBa stabilization activation: at 57.1 µM (top of the series), scaled: untreated 0%, proteasome inhibitor 100% unless noted
Summary of the method: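 Curves were fitted separately to fusion (green), unfused (red) and ratio luminescence, then classed by r2, magnitude and activity. Cells: OCI-Ly3, 4 h compound plus doxycycline at 37C; 10 uM MG-132 defined full response.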
Potency means the concentration at half of the fitted maximal effect.

| SMILES | IkBa stabilization activation | Potency |
| --- | --- | --- |
| CSc1nc(NC(C)(C)C)nc(N2CCOCC2)n1 | inactive: 6.06% |  |
| COc1cc(OC)cc(C(=O)Nc2ccc3nc4c(c(Nc5ccc(OC)c(OC)c5)c3c2)CCCC4)c1 | inactive: -3.93% |  |
| O=C(Nc1ccc(-c2nc3ccccc3o2)c(O)c1)c1cc(Cl)ccc1Cl | inconclusive: 7% [signal inhibitor] |  |
| O=S(=O)(O)c1cc(O)c2c(N=Cc3ccccc3O)cc(S(=O)(=O)O)cc2c1 | inactive: 1.11% [at 11.4 µM, scaled: untreated 0%, proteasome inhibitor 100%] |  |
| CCCCc1ccc(Nc2cc(C)nc(-n3nc(C)cc3C)n2)cc1 | inconclusive: -1.42% [signal inhibitor] |  |
| O=C(NCC(c1cccnc1)N1CCc2ccccc2C1)C(=O)Nc1ccccc1F (stereo not given) | inconclusive: -2.61% [signal inhibitor] |  |
| O=C(CSc1nnc(CNC(=O)c2ccccc2F)o1)c1ccc(Cl)cc1 | inconclusive: 7.34% [signal inhibitor] |  |
| CCN1CCc2c(sc(NC(=O)c3ccc(S(=O)(=O)N(C)C4CCCCC4)cc3)c2C(N)=O)C1 | inconclusive: 0.999% [signal inhibitor] |  |
| CC1Cc2cc(S(=O)(=O)CCC(=O)Nc3ccc(F)cc3)ccc2N1C(=O)C1CC1 (stereo not given) | inconclusive: 1.49% [signal inhibitor] |  |
| Cc1ccc(OCc2ccc(C(=O)N3CCOCC3)cc2)cc1C | inconclusive: 7.9% [signal inhibitor] |  |
| Cc1cccc(C)c1Nc1c(-c2ccc(N3CCOCC3)cc2)nc2ncccn12 | inactive: -2.01% |  |
| COc1ccc(NC(=O)COc2nsnc2N2CCCCC2)cc1 | inconclusive: 8.08% [signal inhibitor] |  |
| COc1ccc(-c2noc(-c3cccc(Cl)c3)n2)cc1OC | inactive: -0.257% |  |
| CN(C(=O)c1c[nH]c2ccc(S(=O)(=O)Nc3cccc(C(F)(F)F)c3)cc2c1=O)C1CCCCC1 | inconclusive: 5.86% [signal inhibitor] |  |
| COc1cccc2sc(NC(=O)c3ccc(S(=O)(=O)N4CCOCC4)cc3)nc12 | inconclusive: 3.54% [signal inhibitor] |  |
| CN(C)S(=O)(=O)c1ccc(C(=O)NCCSc2c(-c3ccc(Br)cc3)[nH]c3ccccc23)cc1 | inconclusive: 7.59% [signal inhibitor] |  |
| O=C(CCN1CCN(CCC(=O)c2ccccc2)CC1)c1ccccc1 | inconclusive: 15% [signal inhibitor] |  |
| Cc1ccc(NC(=O)C2CCCN(c3ncnc4onc(C)c34)C2)c(Cl)c1 (stereo not given) | inconclusive: -1.67% [signal inhibitor] |  |
| Cc1nn(-c2ccccc2)c2c1C1(C(=O)Nc3ccccc31)N1C(=N2)Sc2ccccc21 (stereo not given) | inconclusive: 0.333% [signal inhibitor] |  |
| O=C(Nc1ccc(Cl)cc1C(=O)Nc1ccncc1)c1ccco1 | inconclusive: 2.59% [signal inhibitor] |  |
| CCc1sc(Nc2cccc(Cl)c2)nc1-c1cc2cccc(OC)c2oc1=O | inconclusive: 5.61% [signal inhibitor] |  |
| Cc1c(C(=O)OCc2ccccc2)[nH]c2c1C(=O)CC(c1ccc(N(C)C)cc1)C2 (stereo not given) | inactive: 2.62% |  |
| CC(=O)C1=C(C)NC(SCSc2ccccc2)=C(C#N)C1c1cccnc1 (stereo not given) | inconclusive: 14.4% [signal inhibitor] |  |
| COc1ccc2oc(=O)c(-c3nnc(NCc4ccco4)s3)cc2c1 | inconclusive: 16% [signal activator] |  |

| SMILES | IkBa stabilization activation | Potency |
| --- | --- | --- |
| COC(=O)C1=C(C)NC(=O)NC1c1cn(-c2ccccc2)nc1-c1ccc(OC)c(Br)c1 (stereo not given) | inconclusive: 2.7% [signal inhibitor] |  |
| COc1ccc(C(C(=O)NC2CCCCC2)N(CC2CCCO2)C(=O)CNC(=O)c2ccco2)cc1 (stereo not given) | inactive: 0.599% |  |
| Cn1c(-c2ccco2)nc2cc3ccccc3cc21 | inconclusive: 6.6% [signal inhibitor] |  |
| COc1cccc(-n2c(SCC(=O)c3ccccc3)nc3c([nH]c4ccccc43)c2=O)c1 | inactive: 2.29% |  |
| CCCn1c(COc2cccc(C)c2)nc2ccccc21 | inconclusive: -1.57% [signal inhibitor] |  |
| COC(=O)CSc1nc(N2CCCCC2)c2c(c1C#N)CCCC2 | inactive: 7.14% |  |
| Cc1ccccc1-c1nnc(SCC(=O)N(C)c2ccccc2)o1 | inconclusive: 2.9% [signal inhibitor] |  |
| Cc1ccc(S(=O)(=O)NCc2ccc(C(=O)N3CCN(c4ccccn4)CC3)cc2)cc1 | inconclusive: 0.611% [signal inhibitor] |  |
| CCCCNc1nc2c(-c3cccc(C)c3)nnn2c2ccccc12 | inconclusive: 2.54% [signal inhibitor] |  |
| Cc1cccc(NC(=O)CSc2nnc(-c3ccccc3)n2N)c1 | inactive: -0.101% |  |
| Cc1ccc(/C=C/c2onc(C)c2S(=O)(=O)N2CCC(C(=O)Nc3ccc(OC(F)(F)F)cc3)CC2)cc1 | inactive: -0.498% |  |
| CCn1c(SCC(=O)NCc2ccco2)nnc1C(C)C |  | inconclusive: 31.6 µM [rising, partial curve] |
| O=C(OCc1nnc(-c2ccccc2)o1)c1cn(-c2ccccc2)nc1-c1ccccc1 | inactive: 3.02% |  |
| Cc1ccc(CNC(=O)CCc2c(C)nc3c(-c4ccc(F)cc4)c(C)nn3c2C)cc1 | inactive: 0.731% |  |
| O=c1c2c3nc4ccccc4nc3n(/N=C/c3cccs3)c2ncn1-c1ccccc1 | inactive: 0.055% |  |
| Cc1cccc(OCC(=O)Nc2cccc(C(=O)OCc3cc(=O)n4nc(C(C)C)sc4n3)c2)c1 |  | inconclusive: 20 µM [signal inhibitor, partial curve] |
| Cc1ccn2c(Nc3ccccc3C)c(-c3ccc(N4CCOCC4)cc3)nc2c1 | inactive: 7.09% |  |
| Cc1cc(NC(=O)CC(C)(C)C)nc2c1c(=O)oc1ccccc12 | inactive: -2.37% |  |
| O=c1c2c3c(sc2ncn1/N=C/c1ccco1)CCCC3 | inactive: -0.0415% |  |
| N/N=C1/CC(=O)NC(=O)N1 | inconclusive: 13.1% [signal inhibitor] [at 11.4 µM, scaled: untreated 0%, proteasome inhibitor 100%] |  |
| Cc1ccccc1CCNC(=O)c1ccc(NC(=O)N2CC(C)Sc3ccccc32)cc1 (stereo not given) | inconclusive: 2.21% [signal inhibitor] |  |
| COc1ccccc1OCCn1c(C(C)O)nc2ccccc21 (stereo not given) | inconclusive: 7.36% [signal activator] |  |
| O=C(Cc1c(O)c2ccccc2[nH]c1=O)NC1CCCCCC1 |  | inconclusive: 2 µM [signal inhibitor, full curve] |
| [N-]=[N+]=CC(=O)CC(c1ccccc1)N1C(=O)c2ccccc2C1=O (stereo not given) | inconclusive: 13.9% [signal inhibitor] |  |

| SMILES | IkBa stabilization activation | Potency |
| --- | --- | --- |
| Cc1ccc(C)c(Nc2nnc(-c3ccc(C)c(S(=O)(=O)N4CCN(C)CC4)c3)c3ccccc23)c1 | inconclusive: 11.1% [signal inhibitor] |  |
| CCOc1ccc(NC(=O)CSc2oc(-c3cccs3)nc2S(=O)(=O)c2ccc(C)cc2)cc1 | inconclusive: -0.0274% [signal inhibitor] |  |
| CCn1nc(C)c2c(-c3ccccc3)cc(=O)n(C(C)C(=O)Nc3cccc(F)c3)c21 (stereo not given) | inconclusive: -5.62% [signal inhibitor] |  |
| Nc1nc2ccc(C(=O)Nc3ccccc3)cc2s1 | inconclusive: 11.9% [signal inhibitor] |  |
| CSc1ccccc1NC(=O)c1c(C)noc1C | inactive: -5.19% |  |
| CC1CCCCN1C(=O)Cn1c(=O)n(CCC(=O)NCc2ccco2)c(=O)c2sccc21 (stereo not given) | inactive: 7.89% |  |
| Cc1ccc(C2=CC(c3ccccc3C)n3c(nc4ccccc43)N2)cc1 (stereo not given) | inconclusive: 13% [signal inhibitor] |  |
| COc1ccccc1NC(=O)Cn1cnc2c(cnn2-c2ccccc2)c1=O | inconclusive: 4.19% [signal inhibitor] |  |
| CCC(Sc1ncc(S(=O)(=O)c2ccc(C)cc2)c(=O)[nH]1)C(=O)Nc1cc(C)ccc1C (stereo not given) | inactive: 0.85% |  |
| Cc1ccc2nc(/C(C#N)=N/O)[nH]c2c1 | inconclusive: 6.01% [signal inhibitor] |  |
| CCc1ccc(NC(=O)CN2CCN(C3CCCCC3)C(=O)C2=O)cc1 | inconclusive: -0.00131% [signal inhibitor] |  |
| Cc1ccc(/C=C(\C#N)C(=O)Nc2ccc(Br)cc2)o1 | inconclusive: 1.58% [signal inhibitor] |  |
| COc1ccc(NC(=O)c2ccco2)cc1NC(=O)c1ccc(C)c(C)c1 | inactive: -2.6% |  |
| Cn1c(CCNC(=O)c2ccco2)nc2cc(NS(=O)(=O)c3ccccc3)ccc21 | inconclusive: -0.171% [signal inhibitor] |  |
| CN(C)CCNC(=O)CN1N=C(c2ccccc2)CCC1=O | inconclusive: -0.302% [signal inhibitor] |  |
| COc1cc(C2C(=O)N(C3CCCCCC3)CC(=O)N2Cc2ccccc2)ccc1OC(C)C (stereo not given) | inconclusive: -2.03% [signal inhibitor] |  |
| CC(C)CCNC(=O)NC(=O)CSc1nnc(-c2ccccc2Br)o1 | inconclusive: 1.56% [signal inhibitor] |  |
| Cc1sc2ncnc(N3CCN(c4ncccn4)CC3)c2c1C | inconclusive: 1.46% [signal inhibitor] |  |
| COC(=O)c1ccc(NC(=O)CN(Cc2ccccc2)S(=O)(=O)c2ccc(C)cc2)cc1 | inconclusive: 7.98% [signal inhibitor] |  |
| CCCC(=O)N1CCc2cc(OC)c(OC)cc2C1COc1ccc2c(C)cc(=O)oc2c1 (stereo not given) | inconclusive: -0.218% [signal inhibitor] |  |
| COc1ccc(NC(=O)Cn2c(=O)cc(C)c3c(C)nn(C)c32)cc1 | inconclusive: 0.0827% [signal inhibitor] |  |
| Cc1ccc(Cl)cc1N1CCN(C(=O)c2cnn(C(C)(C)C)c2C2CCN(C(=O)OC(C)(C)C)CC2)CC1 | inconclusive: 6.73% [signal inhibitor] |  |
